The RNAGym collection of RNA variant scans (doi:10.1073/pnas.2313332121)
Variants at the floor of the assay are shown more often than the library holds them.

B1: TPR 5TU (parent)
chain: GGAUCUUCUCGAUCUAACAAAAAAGACAAAUCUGCCACAAAGCUUGAGAGCAUCUUCGGAUGCAGAGGCGGCAGCCUUCGGUGGCGCGAUAGCGCCAACGUUCUCAACUAUGACACGCAAAACGCGUGCUCCGUUGAAUGGAGUUUAUCAUG

Variants of: B1
Assay: polymerase ribozyme fitness, log enrichment relative to wild type (log ratio); higher = more active; in vitro selection for triplet polymerase activity
Procedure, shortened: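 One round of in vitro selection, in triplicate, was applied to PCR-built, transcribed mutant libraries of each subunit of a heterodimeric triplet polymerase ribozyme. The steps were annealing with a biotinylated primer, partner subunit and triplets, incubation frozen at −7 °C, gel excision of extended constructs, streptavidin-bead capture and RT-PCR. Fitness is the logarithm, base 2, of genotype enrichment over wild-type enrichment from inverse-variance-weighted replicate averages of Illumina-sequenced inputs and outputs, keeping genotypes with ≥10 input reads and ≥1 read per output.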

Polymerase ribozyme fitness (log ratio), -1.39:
A47U G48C

Polymerase ribozyme fitness (log ratio), -0.864:
G48A U135A

Polymerase ribozyme fitness (log ratio), -3.91:
G48C G84A A121G U134A G143A

Polymerase ribozyme fitness (log ratio), -0.338:
A47U G92U

Polymerase ribozyme fitness (log ratio), -1.08:
A47U G86A

Polymerase ribozyme fitness (log ratio), -2.93:
G48A A52C C85U

Polymerase ribozyme fitness (log ratio), -1.48:
G48U A106G

Polymerase ribozyme fitness (log ratio), -1.69:
A47C C93U

Polymerase ribozyme fitness (log ratio), 0.0147:
U45G U56A

Polymerase ribozyme fitness (log ratio), -1.06:
A47G C96U G124C

Polymerase ribozyme fitness (log ratio), -1.8:
G48C G141U

Polymerase ribozyme fitness (log ratio), -0.791:
A47C U56A A60G C85U C96U A150U

Polymerase ribozyme fitness (log ratio), -2.38:
A47U U101G C116G

Polymerase ribozyme fitness (log ratio), ≤ -4.2:
G48A U55A C96G A115G A119U A137C G141C A142C
G48A C75A U78C A147G
A47G A52C A73G C76G C87G A98G
A47C A66C G68U C85A C95A C108G
A49C U55A A66U C69G A91U U109A U135G
A49C C76G A91C A98G C116A G141C
A49C C79G G94C
G48A G80C C87G A107U A113U
G48C U55G C75A C93G
G46U U53A C63A C99G U101G C103A
A47C G68A C76G G94A
A47C G50C C108A U146G
G46C C63A A66C U78G C79U U101G
A47C C51G G68C C76U C87U C93G C103G C105G U127G A137G
A47U A66C G84A
A47U G48U G80C C93U
G48C A49C A60G U61A A66G C87A
G48U A52U C93A C95U U145A
A49G C99U A150C
G48U U56A C63U C93U A107G
G48C C57U C85U U90C C105U
A49C C51A A142C A150C
G48U C75G G92U
G48U G92U A121C A150C
A49C G84C U90G C103G A115U
A49C U56A G88U A122C C125U
G48C U61A U77A G126U
G48C G50C U139G U144A
G48A C85A A89U A98U A113G G117A
A47U U53C C93U C103A G124U A142G G143A
G46C C72U A73C
G48C C87G G88C A91G A119U U134G
A49C G58C U82G A113U
A47U A52U G80C G117C
A47C C79G G81A U101G
G46C C93U U134G G140A
G46C A47C U55G A64C C79A A121U U145C
A49C G80A C85U C93A C108U G133U
A47C G50C C54A G86A U90C A107U
A47G U55A C85G C129G
G46U C87A G88A G143U U148A
A49C C96A A119G C131U U145A
A47C A60G A91U U146A
A49C U82C C87G
A49G C69G G88A G133U A147U U148G
G48A A91G U102C U134C G141C
U45G U53G G58C C85U C87A C99G A106U G136A A142U
A49C G88U
A49C G62A G94C A122U C132G A142C
A49C C54G A98G
A47G G50C U82G
A49C U55A C93U C132G C149G
G48A A49C C57A G81C C93U G124C
A47C A52G A64U
A49C G59C A137G U146C
A49G C85G C93U
A49C G100C A121G
A47C G59C U90A A106U A110C U139A
G48U C95U C105G A115G A147U U151C
G48C C51U C69A C116G
G46C G88A C95A A142U A147U
A49C A91C C108A G152U
G46A A49C U101G C132G
A49C C75A G81C C93G A106C U109A G136A
G48A G70A G83A G143U
A49C G83U C93G C103U
G48C G50C G88U C93U G126A G141U G143U
A49C A73U A91U
A49C C57A G68C G143C
A47C G59C G86A
G48A G50U U61G C69U A91G
G48C G84C C85A A110U C125A
A49C G81U G84U C125G G141C A150U
A47U G59C C63U A64G G65U U77A
G46A G59C C76U C96U C116U
G46C C57A A66U A113C
A47C U56C G67U C75A U90A C93U
G48U G50A U56G C87A A106U
G46U C51G C54U
A49C U61G A91U C118A G141U U148A
A47C U56A G65C G80U C103G
A47C U61C C93G C103G
A49C G50C U56A
A49C G68U A89G A97U U135G
G48C C69U A137C U144C
A49C G70A C75G C93G A97C C116G C118G
A49C C93A C96A C103G A115G A138U
G48C U55A C96G U127C U134A
G46C G50U C79A G80C C95U
A49C G81A C96U
G48A U55G G67A C114G A122C C131G
A49C A66C U102G
G48A U55A U90G C96A
G46U A97G A110U C118G A120U G124U
A47C U90G G94U G112A U127A G136C
G48C A49G U55G A66U C85U A97C G126C
G46A A49G G59U G68A C96U
G46A G65C G84U C114G
G48A U61A A91C C131A U139C
A49C U56A A60U
G48A U55A G58A C108U G117A
G48A G50U C85U G140A U148A
G46A C85G A91C C95G C105U A150G
G46A U90G G92U A115G C116G A137U G143A
A47G A113C A119C A137G G140U
G46C U102C G136U
G48U C118G U148G
A49C G59C U77G C87G
G46U C75A C76G A91U C108G A137G
G48U G50C C85G A98U C99U C149U
G48U A49G C87U U130C U134G G136A
A49C U56A C75A G86A
A47U A49G G141A U145A
A49C A52U C57G G100A
G46U G74A C85U G117A C123G C129G G140U
G46U C69U A73U A120G
A49G A52C C95U C96A C99A
A47C G48A G86C
G46C A49C U56A C57U G62A C63A C69U G86C C99U G141C U145G C149U A150U
A49C C85G A107G
A49C U56A C85G C105G G143U
A49C C69G U130A U146C U148G
A49C C76A
G48A G50A C93G A97U C149A
G46U G83U A91U A106U U148C
A47G A52U G84U G86C C114G U145A
G48U A52C U53A C57G G117U
A49C U101G U111A A115G
G48C U55A A107U U111G
A47G A49C A52G G81U G83C U134A
A49C A52C G68U G80C C87A A113U U134A
A47G C51U A66C C87U
A49G C51U C95G A137G U144A
A49C G58C G59C G94U U101G C129G U139G
A47C A91C G112C G133C C149U
A49C G58C C95U U127G G152C

Polymerase ribozyme fitness (log ratio), -0.228:
A47C U55A A60G

Polymerase ribozyme fitness (log ratio), -3.22:
G48A C54A U55G G58U A97G

Polymerase ribozyme fitness (log ratio), -2.71:
G46C U56A G84A G133C

Polymerase ribozyme fitness (log ratio), -2.92:
G48U A142U

Polymerase ribozyme fitness (log ratio), -2.17:
G46A C54G C95U
A47G U56A U134G

Polymerase ribozyme fitness (log ratio), -1.84:
A47C C54U G84A U109G

Polymerase ribozyme fitness (log ratio), -4.01:
G46U G59C C85A A115U

Polymerase ribozyme fitness (log ratio), -2.16:
G46A C85A

Polymerase ribozyme fitness (log ratio), 0.325:
A47G U55G

Polymerase ribozyme fitness (log ratio), -2.54:
G46U G59A A60C

Polymerase ribozyme fitness (log ratio), -1.41:
A47U C75U

Polymerase ribozyme fitness (log ratio), -2.02:
A47U U56A C99G A121C

Polymerase ribozyme fitness (log ratio), -3.31:
G46U C54U A73U

Polymerase ribozyme fitness (log ratio), -2.45:
A47G G84U U135A

Polymerase ribozyme fitness (log ratio), -4.1:
A47C G50C

Polymerase ribozyme fitness (log ratio), -4.06:
A49G C114U U144A

Polymerase ribozyme fitness (log ratio), -1.81:
G46C U109G
